Publication PMC12040169 (PLOS Biology, 2025)
The list shows a part of the results.

test system: T1, C. trachomatis L2/434/Bu expressing GFP (CTL2-GFP); design: species or system HeLa; C. trachomatis total inclusion area by high-content imaging, normalised to DMSO; conditions: total inclusion area; 28.5 h, 10 µM; inhibitor
T1 construct: L2/434/Bu GFP intracellular growth in HeLa cells
In short: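 High-content images of fixed, Hoechst-stained infected cultures supply inclusion area and count (growth) plus nuclei number (viability), complementing bulk GFP/resorufin fluorescence. MIC determination is unchanged from the primary assay.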

SMILES	% of control remaining
O=C1NCCN(C(=O)COc2ccc(F)cc2F)C1Cc1ccccc1-c1cccnc1 (centres unmarked) [CBK285832]	113.654
COc1cccc(CC(=O)N(CCC#N)Cc2ccco2)c1 [CBK304859]	116.056
CC(C)c1ccc(N2C(=O)N[C@@H]3CCN(C(=O)c4cccs4)[C@@H]3C2=O)cc1 [CBK289286]	114.017
Cc1cc(CC(=O)N/N=C/c2ccccc2)[nH]n1 [CBK007500]	59.1781
COc1ccc(NS(=O)(=O)c2ccc3c(c2)oc(=O)c2cc(S(=O)(=O)Nc4ccc(OC)cc4)ccc23)cc1 [CBK268439]	61.0874
O=C1OC(c2ccc(N3C(=O)c4cccc5cccc(c45)C3=O)cc2)(c2ccc(N3C(=O)c4cccc5cccc(c45)C3=O)cc2)c2ccccc21 [CBK261845]	86.84
O=C(Nc1ccccn1)Nc1ccccn1 [CBK015518]	68.2237
N#CC1=C(N)n2c(s/c(=C\c3ccncc3)c2=O)=C(C#N)C1c1ccncc1 (centres unmarked) [CBK262563]	94.9215
Cc1ccc(C(=O)NCCNc2cnccn2)cc1S(C)(=O)=O [CBK246280]	76.1955
CCCCOc1ccc(NC(=O)NCCc2cccs2)cc1 [CBK045202]	77.9593
Cc1ccc(C)c(C2CCCN2C(=O)c2ccc(=O)n(CC(=O)Nc3ccc(F)cc3)c2)c1 (centres unmarked) [CBK286495]	102.279
CCCn1c(O)nnc1-c1cccnc1 [CBK074889]	88.8462
Cc1c(C(=O)NCCN2CCC(C)CC2)oc2c1C(O)CC(C)(C)C2 (centres unmarked) [CBK282100]	86.5513
CN1CC2(CCCN(Cc3noc(-c4ccccc4)n3)C2)OC1=O (centres unmarked) [CBK306952]	82.3759
CNC(=O)N1CCN(CCOC(c2ccc(F)cc2)c2ccc(F)cc2)CC1 [CBK024948C]	8.2866
COC1C(O)C(CO)OC1n1cnc2c(N)nc(N)nc21 (centres unmarked) [CBK201241]	106.397
O=C(O)Cc1sc(-c2ccc(Cl)cc2)nc1O [CBK067730]	102.424
COC(=O)Nc1ncc(CN2CCc3ccccc3C2)s1 [CBK268376]	119.802
COCCNc1nc(-c2ccc(F)cc2)cnc1N [CBK063591]	105.854
COc1ccc(-c2ccc(=O)n(CC(=O)NCc3ccc(C(=O)O)cc3)n2)c(F)c1 [CBK286776]	77.2005
Nc1cccnc1OCCN1CCN(CC(=O)N2CCCCc3ccccc32)CC1 [CBK007764]	89.277
COCc1cn(C2CC(O)C(CO)O2)c(=O)[nH]c1=O (centres unmarked) [CBK201230]	100.84
Cn1cc(C2CCCCCN2Cc2cc(Cl)ccc2O)cn1 (centres unmarked) [CBK282941]	98.7122
COc1cc(C(=O)Nc2nc3c(C)cccc3s2)cc(OC)c1OC [CBK287302]	93.8716
COC(=O)c1cccn2cc(CN(CC#N)C3CC3)nc12 [CBK305821]	89.7371
Oc1cc(CCc2ccc(F)cc2)nc2ccnn12 [CBK281876]	102.886
CCc1nnc(NC(=O)COC(=O)CSc2nc(C)cc(C)n2)s1 [CBK018792]	93.5886

SMILES	% of control remaining
COc1cc(CN2CCC(Cc3ccccc3-c3ccccc3)(C(N)=O)CC2)cc(OC)c1 [CBK285912]	121.27
CC(C)(C)OC(=O)N1CCC(C(=O)NCc2ccccn2)CC1 [CBK305696]	66.6867
Cc1ccc2c(c1)oc(=O)n2CCNC(=O)Cc1c[nH]c2ccccc12 [CBK284473]	105.175
NCCSC1CC(=O)N(Cc2cccs2)C1=O (centres unmarked) [CBK269047C]	110.956
Cc1cnn(CC2CCCN2C(=O)CC2OCCc3ccsc32)c1 (centres unmarked) [CBK305370]	84.8542
Cc1n[n+]2c(C(=O)Nc3ccc(S(=O)(=O)Nc4nccs4)cc3)c(C)[n-]n2c1[N+](=O)[O-] [CBK293983]	73.2465
COCCNC(=O)C1CCCN(c2nc3c(-c4ccccc4)csc3c(=O)[nH]2)C1 (centres unmarked) [CBK215497]	109.416
COC(=O)[C@@H](C)NC(=O)[C@@H]1CN(C(=O)c2cccc(F)c2)CCN1S(C)(=O)=O [CBK289625]	96.0213
CCCCC(CC)CN1CNC(=S)NC1 (centres unmarked) [CBK265404]	110.444
COC(=O)C1(Cc2cc(-c3cccc(F)c3)no2)CCOCC1 [CBK285330]	96.5417
c1ccc(Nc2nc(-c3cccs3)cn3ccnc23)cc1 [CBK066513]	75.8516
CC1CCCN(C(=S)NC2CC3CCC2C3)C1 (centres unmarked) [CBK085999]	104.37
CCCn1c(SCC(=O)NC2CCN(CC)CC2)nc2cc(Cl)ccc21 [CBK305027]	44.5417
COc1ccc(NC(=O)Cc2csc(NC(=O)c3ccco3)n2)c(OC)c1 [CBK287649]	83.9115
Cc1oc(S(=O)(=O)N(C)C)cc1C(=O)O [CBK113681]	58.7532
CCC(=O)N1CCC[C@@H]1Cn1nc(-c2cccs2)ccc1=O [CBK282304]	100.614
Nc1cccc(-c2cc(Nc3ccc(Cl)cc3)ncn2)c1 [CBK090886]	52.4147
CCOc1ccccc1CNc1ccc(C2c3ccsc3CCN2C(C)=O)cc1 (centres unmarked) [CBK286459]	101.924
CCN(Cc1ccco1)C(=O)Cn1c(=O)n(C)c2ncccc21 [CBK282390]	95.1821
COCCc1nc(-c2csc(CN(C)C)n2)n(Cc2ccccc2C)n1 [CBK306735]	66.4238
NS(=O)(=O)c1ccc(NC(=O)CN2CCN(c3cccc(C(F)(F)F)c3)CC2)cc1 [CBK266180]	139.816
[O-][S+](CC(O)COc1ccc(Cl)cc1)c1ccccn1 (centres unmarked) [CBK261750]	103.418
CCCOCCCn1ccc2nc(OC)c(C#N)cc2c1=O [CBK307162]	94.6893
COc1ccc(CCCC(=O)Nc2ccc(N3CCNCC3)nc2)cc1OC [CBK028272T]	111.464
COc1ccnc(NC(c2cnn(C)c2)[C@H]2C[C@@H](O)C2)n1 (some centres unmarked) [CBK306617]	56.7585
CSc1ccccc1NC(=O)CN(c1ccc(F)cc1)S(=O)(=O)c1ccc2c(c1)OCCO2 [CBK266836]	144.624
CC(=O)N1C[C@H]2CCCN(S(=O)(=O)c3ccc(F)cc3)[C@H]2C1 [CBK285283]	114.671

SMILES	% of control remaining
O=c1[nH]nc(SCCCOc2ccc(Cl)cc2)n1C1CC1 [CBK295597]	77.8515
CC(C)(C)c1ccc(/C=N/NC(=O)CCSc2ccc(Cl)cc2)cc1 [CBK263696]	104.281
O=C(NC1CCN(Cc2c(F)cccc2Cl)CC1)c1cccs1 [CBK057035]	68.52
N#Cc1ccc(C(=O)N2CCN3C(=O)[C@H](Cc4ccc(F)cc4)NC(=O)[C@H]3C2)cc1 [CBK289602]	102.632
COc1ccc(C(=O)N2Cc3nc[nH]c3C[C@H]2c2nc(-c3ccc(OC)cc3)no2)cc1 [CBK288966]	85.055
O=C(N1CCn2cnnc2C1)C1(c2ccccc2)CCCC1 [CBK283926]	81.3419
Cc1ccccc1-c1nnc(-c2ccc(C(=O)N=c3sccn3C)cc2)o1 [CBK298283]	70.1117
O=C(NCc1ccccc1)c1ccc2[nH]c(=O)c(-c3ccccc3)c(O)c2c1 [CBK160318]	68.2553
CC(=O)Nc1ccc(OCC(O)Cn2nc(-c3ccco3)oc2=O)cc1 (centres unmarked) [CBK305615]	67.9684
CC(C)[C@H](CO)Nc1cncc(-c2ccccc2CO)n1 [CBK065326]	83.2839
c1ccc(CN2CCN(Cc3ccccc3)C2c2ccco2)cc1 [CBK260888]	78.824
O=C(O)c1ccc(NS(=O)(=O)c2ccc(Br)cc2)cc1 [CBK034058]	103.099
O=C(c1ccc(-c2nccnc2NCCc2c[nH]c3ccccc23)cc1)N1CCOCC1 [CBK036891]	110.384
Cc1cnn(C2CCCN(C(=O)Cc3cccs3)C2)c1 (centres unmarked) [CBK304832]	37.7617
O=C(CN1C(=O)S/C(=C\C=C\c2ccccc2)C1=O)Nc1cccc2c1C(=O)c1ccccc1C2=O [CBK263870]	106.073
N#Cc1ccc(C(=O)Nc2cncc(OC3CCNCC3)n2)cc1 [CBK036371T]	98.2789
Cc1ccc(NC(=O)c2cncnc2)c(C)n1 [CBK200380]	96.5434
O=C1c2cccc3cccc(c23)C(=O)N1CCN1CCN(CC(O)COc2ccccc2)CC1 (centres unmarked) [CBK266255]	105.278
O=C(/C=C\c1ccccc1)CC1(O)C(=O)N(Cc2cccc3ccccc23)c2ccccc21 (centres unmarked) [CBK264761]	99.5788
COc1ccc(OC)c(C2C(C(=O)c3ccccc3)=C(O)C(=O)N2CCN2CCOCC2)c1 (centres unmarked) [CBK264748]	109.405
COc1cccc(-c2cncc(C3CN(Cc4cccc5ncccc45)CCO3)n2)c1 (centres unmarked) [CBK285973]	87.2783
CC(=O)Nc1ccc(S(=O)(=O)Nc2cccc(C(=O)O)c2)cc1 [CBK050407]	81.5485
COc1ccc(C(=O)N(C)C)cc1OC [CBK015550]	61.3013
COc1ccccc1C(CN)C1CCCCC1 (centres unmarked) [CBK009878]	21.3417
CN(C)C(=O)CN1CC[C@@H](c2ccccc2)[C@H](O)C1 [CBK283979]	95.2438
Cn1cc([C@@H]2CN(Cc3ccc(F)c(F)c3)C[C@H]2N)c2ccncc21 [CBK285179]	99.2731
